# Data reported in paper PMC3599065.
# Positions count from the first letter of the chain named. Results are given in words; binding and its absence hold for the method and conditions named. Binding seen in cells or lysates may run through a third protein. Some entries that bind do so weakly or less than the wild type. For some assays here: Sequences can lack the tags named with a protein.
# T1: TAP-JIP3-LZ4A (mouse) (UniProt Q9ESN9)
# T1 sequence: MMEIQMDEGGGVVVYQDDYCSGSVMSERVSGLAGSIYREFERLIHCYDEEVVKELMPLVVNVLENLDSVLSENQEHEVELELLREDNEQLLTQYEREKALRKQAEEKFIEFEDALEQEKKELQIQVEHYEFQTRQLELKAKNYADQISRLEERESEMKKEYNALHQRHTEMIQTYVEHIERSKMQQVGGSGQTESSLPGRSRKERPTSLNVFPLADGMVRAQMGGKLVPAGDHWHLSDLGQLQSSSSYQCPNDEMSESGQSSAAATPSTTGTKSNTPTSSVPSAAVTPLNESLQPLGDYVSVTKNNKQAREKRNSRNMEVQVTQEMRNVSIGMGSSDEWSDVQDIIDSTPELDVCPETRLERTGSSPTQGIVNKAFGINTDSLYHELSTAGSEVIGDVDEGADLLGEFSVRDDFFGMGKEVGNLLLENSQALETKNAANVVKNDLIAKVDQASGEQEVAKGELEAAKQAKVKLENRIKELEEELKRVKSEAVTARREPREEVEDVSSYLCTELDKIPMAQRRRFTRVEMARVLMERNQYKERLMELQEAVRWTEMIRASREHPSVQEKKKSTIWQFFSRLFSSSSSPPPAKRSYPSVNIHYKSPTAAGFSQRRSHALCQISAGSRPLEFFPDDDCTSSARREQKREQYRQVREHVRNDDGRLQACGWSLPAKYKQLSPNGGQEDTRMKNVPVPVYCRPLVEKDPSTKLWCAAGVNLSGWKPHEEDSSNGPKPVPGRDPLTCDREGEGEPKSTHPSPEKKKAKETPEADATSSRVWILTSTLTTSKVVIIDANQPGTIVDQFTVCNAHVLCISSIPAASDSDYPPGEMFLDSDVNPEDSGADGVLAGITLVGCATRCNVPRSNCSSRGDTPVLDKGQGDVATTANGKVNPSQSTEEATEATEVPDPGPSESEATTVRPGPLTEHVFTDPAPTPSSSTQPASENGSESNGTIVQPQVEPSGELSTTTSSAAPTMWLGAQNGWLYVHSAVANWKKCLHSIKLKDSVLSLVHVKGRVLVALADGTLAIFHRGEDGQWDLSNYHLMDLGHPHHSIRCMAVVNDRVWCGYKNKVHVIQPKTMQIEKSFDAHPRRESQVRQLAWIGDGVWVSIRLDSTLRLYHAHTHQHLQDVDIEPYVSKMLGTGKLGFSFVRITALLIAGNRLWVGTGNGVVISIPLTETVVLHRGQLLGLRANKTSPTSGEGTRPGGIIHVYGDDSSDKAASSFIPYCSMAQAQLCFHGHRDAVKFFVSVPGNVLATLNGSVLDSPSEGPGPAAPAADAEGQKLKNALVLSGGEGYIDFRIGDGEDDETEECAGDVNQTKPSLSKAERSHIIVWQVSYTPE
# T2: JIP1 (endogenous, E17 mouse brain) (mouse (endogenous in E17 brain)) (UniProt Q9WVI9)
# T2 sequence: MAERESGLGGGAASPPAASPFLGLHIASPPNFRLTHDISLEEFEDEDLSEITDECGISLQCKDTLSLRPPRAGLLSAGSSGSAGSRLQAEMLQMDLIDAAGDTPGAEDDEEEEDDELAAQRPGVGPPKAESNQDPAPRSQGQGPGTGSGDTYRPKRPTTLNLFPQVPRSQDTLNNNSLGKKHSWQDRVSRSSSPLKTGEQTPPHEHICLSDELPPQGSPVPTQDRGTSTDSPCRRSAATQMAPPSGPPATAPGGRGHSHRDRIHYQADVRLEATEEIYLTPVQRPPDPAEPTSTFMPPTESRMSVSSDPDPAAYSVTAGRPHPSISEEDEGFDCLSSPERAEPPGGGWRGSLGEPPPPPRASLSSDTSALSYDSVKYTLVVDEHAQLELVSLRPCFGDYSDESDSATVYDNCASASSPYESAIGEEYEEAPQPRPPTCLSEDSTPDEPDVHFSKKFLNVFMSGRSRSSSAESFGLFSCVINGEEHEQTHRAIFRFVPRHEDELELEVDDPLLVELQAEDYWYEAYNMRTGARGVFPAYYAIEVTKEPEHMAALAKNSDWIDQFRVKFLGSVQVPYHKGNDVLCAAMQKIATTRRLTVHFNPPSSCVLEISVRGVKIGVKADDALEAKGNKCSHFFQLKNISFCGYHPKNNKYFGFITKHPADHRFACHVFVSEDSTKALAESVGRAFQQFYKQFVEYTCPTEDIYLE
# B1: GFP-JIP1-dCT (in HEK293T) (domain or fragment, UniProt Q9WVI9 1-703)
# chain: MAERESGLGGGAASPPAASPFLGLHIASPPNFRLTHDISLEEFEDEDLSEITDECGISLQCKDTLSLRPPRAGLLSAGSSGSAGSRLQAEMLQMDLIDAAGDTPGAEDDEEEEDDELAAQRPGVGPPKAESNQDPAPRSQGQGPGTGSGDTYRPKRPTTLNLFPQVPRSQDTLNNNSLGKKHSWQDRVSRSSSPLKTGEQTPPHEHICLSDELPPQGSPVPTQDRGTSTDSPCRRSAATQMAPPSGPPATAPGGRGHSHRDRIHYQADVRLEATEEIYLTPVQRPPDPAEPTSTFMPPTESRMSVSSDPDPAAYSVTAGRPHPSISEEDEGFDCLSSPERAEPPGGGWRGSLGEPPPPPRASLSSDTSALSYDSVKYTLVVDEHAQLELVSLRPCFGDYSDESDSATVYDNCASASSPYESAIGEEYEEAPQPRPPTCLSEDSTPDEPDVHFSKKFLNVFMSGRSRSSSAESFGLFSCVINGEEHEQTHRAIFRFVPRHEDELELEVDDPLLVELQAEDYWYEAYNMRTGARGVFPAYYAIEVTKEPEHMAALAKNSDWIDQFRVKFLGSVQVPYHKGNDVLCAAMQKIATTRRLTVHFNPPSSCVLEISVRGVKIGVKADDALEAKGNKCSHFFQLKNISFCGYHPKNNKYFGFITKHPADHRFACHVFVSEDSTKALAESVGRAFQQFYKQFVEYTCPTED
# B2: JIP3 (endogenous, E17 mouse brain) (protein, UniProt Q9ESN9 1-1337)
# chain: T1 sequence with A431L, A438L, A452L, A459L
# Experiments:
# [1] = target: T1, TAP-JIP3-LZ4A (mouse); assay: pull-down; lysates of HEK293T cells expressing a TAP-tagged JIP1 or JIP3 construct with V5-KLC, V5-KHC and a GFP-tagged partner (GFP-JIP3, GFP-JIP1, GFP-DLK or GFP-APP-C constructs), precipitated with streptavidin sepharose, western blot
# [2] = target: T2, JIP1 (endogenous, E17 mouse brain) (mouse (endogenous in E17 brain)); assay: co-IP; E17 mouse brain extract immunoprecipitated with 8 ug anti-JIP1 antibody (normal rabbit IgG as control) for 4 hours, Protein A Sepharose, western blot
Binder,binding [1],binding [2]
B1,binds,
B2,,binds
